Experimental data published in PubChem BioAssay AID504333 (National Center for Advancing Translational Sciences (NCATS), 2011).
The campaign covered roughly 360,000 compounds. About 16,000 (4.4%) were called active. Inconclusive means that the source gave no clear call. Such entries were picked first, then a sample of the others. Calls come from the whole dose curve; as a rule, active = well fitted inhibition curve with a large enough effect; inconclusive = small, poorly fitted or top-dose-only effect; inactive = no such curve, though single readings can be large or run the other way. Where the call is inconclusive, the potency comes from a doubtful curve fit.

molecular target: Bromodomain adjacent to zinc finger domain protein 2B (Homo sapiens) (UniProt Q9UIF8); assay: qHTS Assay for Inhibitors of BAZ2B; details: AlphaScreen BAZ2B-H3K14Ac peptide displacement; activity change, negative = inhibition: at 114 µM (top of the series) unless noted; note: nearly all actives have a fitted effect of over 60% in size
Chain of UniProt Q9UIF8 (Q9UIF8 whole entry, looked up, the tested form may be a part): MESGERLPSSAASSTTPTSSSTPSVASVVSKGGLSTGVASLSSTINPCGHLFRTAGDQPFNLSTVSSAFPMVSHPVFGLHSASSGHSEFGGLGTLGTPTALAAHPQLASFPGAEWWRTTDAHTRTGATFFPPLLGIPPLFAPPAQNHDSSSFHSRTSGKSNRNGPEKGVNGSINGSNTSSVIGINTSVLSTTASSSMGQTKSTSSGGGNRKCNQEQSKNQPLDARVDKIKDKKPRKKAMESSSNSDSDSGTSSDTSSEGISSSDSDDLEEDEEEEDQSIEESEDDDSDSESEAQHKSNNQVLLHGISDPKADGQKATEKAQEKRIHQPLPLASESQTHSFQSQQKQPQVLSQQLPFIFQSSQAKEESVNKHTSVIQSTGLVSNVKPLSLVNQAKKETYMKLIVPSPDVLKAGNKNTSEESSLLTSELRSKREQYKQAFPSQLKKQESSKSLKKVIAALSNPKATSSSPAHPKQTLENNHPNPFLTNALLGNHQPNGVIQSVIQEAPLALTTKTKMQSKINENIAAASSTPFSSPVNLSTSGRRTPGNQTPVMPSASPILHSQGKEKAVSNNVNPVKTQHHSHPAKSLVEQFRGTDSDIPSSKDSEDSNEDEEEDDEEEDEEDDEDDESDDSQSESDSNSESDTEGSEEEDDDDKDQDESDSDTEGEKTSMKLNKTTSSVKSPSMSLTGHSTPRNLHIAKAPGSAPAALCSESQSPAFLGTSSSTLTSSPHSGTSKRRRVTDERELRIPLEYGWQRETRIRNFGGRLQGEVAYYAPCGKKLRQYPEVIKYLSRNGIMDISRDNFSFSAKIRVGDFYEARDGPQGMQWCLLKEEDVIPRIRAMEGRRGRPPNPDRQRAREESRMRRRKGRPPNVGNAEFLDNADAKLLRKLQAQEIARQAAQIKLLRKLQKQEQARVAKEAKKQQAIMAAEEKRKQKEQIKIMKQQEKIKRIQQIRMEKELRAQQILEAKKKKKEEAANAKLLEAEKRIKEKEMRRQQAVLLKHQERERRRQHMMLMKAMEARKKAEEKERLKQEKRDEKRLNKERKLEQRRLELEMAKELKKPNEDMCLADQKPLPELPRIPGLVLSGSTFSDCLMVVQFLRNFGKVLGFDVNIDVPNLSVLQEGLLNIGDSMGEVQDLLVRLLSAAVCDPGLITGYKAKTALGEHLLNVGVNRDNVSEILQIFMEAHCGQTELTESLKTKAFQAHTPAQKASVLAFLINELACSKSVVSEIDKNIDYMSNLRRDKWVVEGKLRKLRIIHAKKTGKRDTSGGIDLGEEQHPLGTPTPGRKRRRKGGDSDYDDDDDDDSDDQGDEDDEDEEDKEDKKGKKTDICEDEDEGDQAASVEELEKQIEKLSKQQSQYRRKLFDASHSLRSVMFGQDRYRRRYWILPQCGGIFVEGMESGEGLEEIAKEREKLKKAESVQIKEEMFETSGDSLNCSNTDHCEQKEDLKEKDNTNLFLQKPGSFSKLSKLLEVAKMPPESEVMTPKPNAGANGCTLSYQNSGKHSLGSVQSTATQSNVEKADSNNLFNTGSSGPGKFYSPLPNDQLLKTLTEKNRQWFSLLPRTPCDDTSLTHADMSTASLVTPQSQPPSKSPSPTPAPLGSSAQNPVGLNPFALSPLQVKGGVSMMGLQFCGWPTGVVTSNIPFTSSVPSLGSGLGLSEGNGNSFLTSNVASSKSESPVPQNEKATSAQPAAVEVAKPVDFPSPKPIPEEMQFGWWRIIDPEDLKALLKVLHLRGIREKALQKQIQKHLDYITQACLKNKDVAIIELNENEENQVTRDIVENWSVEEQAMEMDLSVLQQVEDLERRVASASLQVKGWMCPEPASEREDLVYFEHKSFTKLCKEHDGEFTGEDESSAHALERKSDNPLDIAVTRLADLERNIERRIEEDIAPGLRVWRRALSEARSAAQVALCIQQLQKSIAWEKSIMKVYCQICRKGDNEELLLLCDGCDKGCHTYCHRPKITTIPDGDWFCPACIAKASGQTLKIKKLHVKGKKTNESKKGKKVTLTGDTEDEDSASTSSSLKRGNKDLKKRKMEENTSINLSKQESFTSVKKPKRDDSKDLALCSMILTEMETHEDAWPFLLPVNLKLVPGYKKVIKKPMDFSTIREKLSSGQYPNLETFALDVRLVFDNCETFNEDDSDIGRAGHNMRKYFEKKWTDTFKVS
In short: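 In this displacement format the biotinylated H3(5-23) peptide acetylated at Lys14 serves as ligand at 50 nM, with BAZ2B at 50 nM in PBS pH 7.4 containing 0.01% Tween-20. Donor and acceptor beads are 10 ug/mL final.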
% is set by controls: 0 for no effect and ±100 for the full control effect; potency is the fitted concentration of half-maximal effect; tags give direction and shape of the fitted curve.

SMILES	activity change, negative = inhibition	Potency
CCCCCC(=O)NCC(C)NC(=O)CCCCC (configuration not stated)	inactive: -2.37%	–
CC(=O)OCc1cnc(C)c2oc(=O)c(C(=O)Nc3ccc(F)cc3C)cc12	inactive: -12.6%	–
Cc1cccc(C)c1OCCCCN1CCNCC1	–	inconclusive: 56.2 µM [inhibitor, partial curve]
NS(=O)(=O)c1ccc(NC(=S)NCc2ccc3c(c2)OCO3)cc1	–	inconclusive: 89.1 µM [inhibitor, single point]
O=C(/C=C/c1ccco1)Nc1ccc(CN2CCOCC2)cc1	–	inconclusive: 89.1 µM [inhibitor, single point]
CCc1ccccc1-n1nnnc1SCC(=O)Nc1cc(C)on1	–	inconclusive: 89.1 µM [inhibitor, single point]
CCc1nc2ccc(C(=O)NCCc3ccc(SC)cc3)cc2nc1CC	inactive: -2.04%	–
COc1cccc(CNC(=O)CCNC(=O)c2ccccc2OC)c1	inactive: 4.18%	–
COc1cccc(C(=O)OCC(=O)Nc2cc(C)c(C)cc2[N+](=O)[O-])c1	–	inconclusive: 17.8 µM [inhibitor, full curve]
CN(C)S(=O)(=O)c1cccc(NC(=S)NC23CC4CC(CC(C4)C2)C3)c1	inactive: -16.5%	–
O=C(N/N=C/c1cccc([N+](=O)[O-])c1)c1nc2ccccc2c(=O)[nH]1	inactive: -20%	–
COc1ccccc1N1CSC2=C(C#N)C(c3ccc(SC)cc3)CC(=O)N2C1 (configuration not stated)	–	active: 50.1 µM
C/C(O)=C(\C#N)c1nnc2n1CCCCC2	–	active: 56.2 µM
COc1ccccc1N(C)S(=O)(=O)c1ccc(C(=O)N(CC(N)=O)C(C)C)cc1	–	active: 89.1 µM
C=C(C)COc1ccc(-c2ncnc(C(F)(F)F)c2-c2ccc(OC)cc2)c(O)c1	–	inconclusive: 56.2 µM [inhibitor, single point]
Nc1nc(-c2ccc(-n3nncc3-c3ccco3)cc2)cs1	–	inconclusive: 44.7 µM [inhibitor, partial curve]
CN(CC(=O)Nc1cccc(F)c1)C(=O)c1cc(S(=O)(=O)N2CCN(c3ccccc3)CC2)ccc1Cl	inactive: -0.0438%	–
O=C(/C=C/c1ccc(Br)o1)NCc1ccccc1	–	inconclusive: 89.1 µM [inhibitor, single point]
Nc1nc(Nc2ccc(Cl)cc2)nc(NCc2ccco2)c1[N+](=O)[O-]	–	inconclusive: 79.4 µM [inhibitor, single point]
CC1CCN(c2ccc([N+](=O)[O-])c(SCCO)c2)CC1	–	inconclusive: 44.7 µM [inhibitor, partial curve]
Fc1ccc(-c2n[nH]c(=S)n2-c2ccc3c(c2)OCCO3)cc1	inactive: -23.2%	–
Cc1csc(=O)n1CC(=O)OCC(=O)Nc1cc(Cl)ccc1[N+](=O)[O-]	–	inconclusive: 79.4 µM [inhibitor, single point]
O=C1CCN(CCc2ccccc2)CCN1[C@H](CSc1ccccc1)Cc1ccccc1	–	inconclusive: 79.4 µM [inhibitor, single point]
CC(=O)Nc1ccc(NC(=O)COc2ccc(-c3ccc(C#N)cc3)cc2)cc1	inactive: 6.19%	–

SMILES	activity change, negative = inhibition	Potency
O=S(=O)(c1ccc2[nH]c3c(c2c1)CCCC3)N1CCCCC1	–	active: 25.1 µM
Cc1cc(=O)oc2c(C)c(OCC(=O)N3CCN(c4ccccc4)CC3)ccc12	–	inconclusive: 79.4 µM [inhibitor, single point]
COc1ccc(/C=N/N=C2\SCC(=O)N2c2c(C)n(C)n(-c3ccccc3)c2=O)cc1OC	–	inconclusive: 89.1 µM [inhibitor, single point]
CCOc1ccccc1NC1=NCC(=O)N1Cc1ccc(F)cc1	–	inconclusive: 89.1 µM [inhibitor, single point]
O=C(c1ccco1)N1CCN(c2ncnc3c2[nH]c2ccc(Br)cc23)CC1	inactive: -5.97%	–
CCN(CC)S(=O)(=O)c1ccc(C(=O)/C=C/c2ccc(-c3ccc([N+](=O)[O-])cc3)o2)cc1	inactive: -25.6%	–
CC1=C(C(=O)Nc2ccc(C)cc2C)C(c2ccc(O)cc2)n2nnnc2N1 (configuration not stated)	inactive: -4.35%	–
O=C(CC1C(=O)NCCN1Cc1ccc(F)cc1)NCCN1CCCc2ccccc21 (configuration not stated)	–	active: 79.4 µM
O=C(C1CCN(Cc2ccc(F)cc2)CC1)N(CCc1ccccc1)Cc1ccccc1	–	inconclusive: 79.4 µM [inhibitor, single point]
Nc1ccc(N2CCCCC2)c(S(=O)(=O)Nc2ccccc2Cl)c1	–	inconclusive: 50.1 µM [inhibitor, partial curve]
Cn1c(=O)n(C)c2cc([N+](=O)[O-])c(N3CCN(S(=O)(=O)c4ccc(C(C)(C)C)cc4)CC3)cc21	inactive: -33.5%	–
COc1ccccc1NC(=O)CCN1C(=O)/C(=C\c2cc(OC)c(OC)c(OC)c2)SC1=S	inactive: -4.1%	–
CCCc1cc(-c2[nH]ncc2-c2ccc3c(c2)OCCCO3)c(O)cc1O	–	inconclusive: 39.8 µM [inhibitor, full curve]
CC(C)=CCCC1(C)C=Cc2c(ccc3c2[nH]c2cc(O)c(C)cc23)O1 (configuration not stated)	–	inconclusive: 50.1 µM [inhibitor, partial curve]
CN1CCCN(C(=O)c2cc(-c3ccc(Cl)c(Cl)c3Cl)nc3ccccc23)CC1	–	inconclusive: 79.4 µM [inhibitor, single point]
CC(=O)c1cc(-c2ccccc2)n(CCC(=O)NCc2cccs2)c1C	–	active: 50.1 µM
O=[N+]([O-])c1cc([N+](=O)[O-])c(Oc2ccc(Br)cc2Br)cc1NN1CCCCC1	–	inconclusive: 3.98 µM [inhibitor, full curve]
Cc1ccc(O)c(CP(=O)(c2ccccc2)c2ccccc2)c1	inactive: 3.76%	–
CC(C)c1nnc(NC(=O)CCS(=O)(=O)c2nc(-c3cccs3)cc(C(F)(F)F)n2)s1	–	active: 89.1 µM
CN(C)S(=O)(=O)N1CCC(c2ccc(F)cc2)C(COc2ccc3c(c2)OCO3)C1 (configuration not stated)	–	inconclusive: 22.4 µM [inhibitor, full curve, poor fit]
COc1ccc(/C=C2\CC/C(=C\c3ccc(OC)c(OC)c3)C2=O)cc1OC	–	active: 20 µM
CCCCc1nn2c(=O)cc(COC(=O)c3cccc(OC)c3)nc2s1	inactive: -1.14%	–
Cn1c2ccccc2c2c(C(=O)N3CCN(c4ccc(F)cc4)CC3)cn(C3CCCC3)c(=O)c21	–	inconclusive: 31.6 µM [inhibitor, full curve, poor fit]
